Laboratory results published in PubChem BioAssay AID1963576 (National Center for Advancing Translational Sciences (NCATS), 2024).
In all, about 46,000 compounds went through this assay and about 60 (0.1%) were called active. Not shown: some 3% with an inconclusive outcome. Calls follow the shape of the dose curve; as a rule, active = well fitted inhibition curve with a large enough effect; inconclusive = small, poorly fitted or top-dose-only effect; inactive = no such curve, though single readings can be large or run the other way. Some of the results follow.

Experiment: Primary qHTS assay for Inhibitors of ovarian cancer metastasis using an organotypic tumor microenvironment (TME) model. Also: nearly all actives have a fitted effect of over 65% in size.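 As to activity change, negative = inhibition: plate controls were DMSO wells for no effect and tomatine positive control wells for full effect.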
Conditions: SKOV3ip1-GFP adhesion/invasion on 3D omental model, fluorescence; series mostly up to 45.8 µM; activity change, negative = inhibition: at the top concentration
Summary of the method: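 qHTS, 4-pt dose (0.36-46 umol/L); SKOV3ip1-GFP, 1,200 cells/well, no FBS; primary omental fibroblast/mesothelial co-culture 48 h pre-grown; 2 h RT + 16 h 37 C; PBS wash, 4% PFA; GFP count 488/509 nm.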

outcome, inactive:
CCN(C(=O)CSc1nc(-c2ccc(C(C)C)cc2)no1)c1cccc(C)c1
CSc1ccc(C2c3c(oc4cc(C)cc(C)c4c3=O)C(=O)N2Cc2ccco2)cc1 (centres undefined)
Cc1cc(C)cc(OC(C)C(=O)Nc2c(C(=O)c3ccccc3)oc3ccccc23)c1 (centres undefined)
CCOC(=O)c1cc(OC(=O)c2ccccc2C)n(-c2ccccc2)n1
COc1ccc(C(=O)Nc2ccc(-n3nncc3-c3ccccc3)cc2)cc1OC
Cc1ccc(-n2nc(CO)c(C(=O)NCc3cccnc3)n2)cc1
COc1ccc(OC)c(CNC(=O)C2CCN(c3nc4ccccc4nc3C(F)(F)F)CC2)c1
CCCCc1c(C)nc2c(-c3ccc(OC)cc3)c(C)[nH]n2c1=O
COc1ccccc1NC(=O)CSc1ncc2c(n1)-c1cc(Cl)ccc1N(Cc1ccccc1)S2(=O)=O
Cc1ccc(OCC(=O)Nc2ccc3nc(SCC(=O)N4CCOCC4)sc3c2)cc1
O=C(C1CCN(S(=O)(=O)Cc2ccccc2)CC1)N1CCN(c2ccccc2)CC1
CCOC(=O)c1cccc(NS(=O)(=O)c2ccc(-c3cnc(C4CC4)o3)cc2)c1
CCOC(=O)c1cccc(NC(=O)c2cc3c(-c4cccc(OC)c4)nn(C)c3s2)c1
COc1cc(NC(=O)CSc2nc3ccccc3nc2Cc2ccc(Cl)cc2)cc(OC)c1
Cc1nn(C)c2c1c(-c1ccccc1)cc(=O)n2CC(=O)Nc1ccccc1C(F)(F)F
COc1cccc(Nc2cc(C)nc3nc(-c4ccc(Cl)cc4)nn23)c1
COc1ccc2c(c1)CC(C(=O)Nc1cc(Cl)ccc1C)CO2 (centres undefined)
CCc1ccc(CNC(=O)C2Cc3cc(S(=O)(=O)N4CCCCCC4)ccc3N2C(C)=O)cc1 (centres undefined)
Cc1cn2c(=O)cc(COc3ccc(Cl)cc3)nc2s1
COc1cccc(C2CC(=O)N(c3ccc(F)cc3)C3=C2C(=O)OC3)c1OC (centres undefined)
Cc1ccc(OCC(=O)Nc2ccc(Cl)c(-c3nc4ncccc4o3)c2)c(C)c1
Cc1cccc(NC(=O)C2CCC(CNS(=O)(=O)c3ccc(Br)s3)CC2)c1 (centres undefined)
COc1cc(C2c3c(oc4ccccc4c3=O)C(=O)N2c2ccccn2)cc(OC)c1OC (centres undefined)
CCCc1nn2c(=O)cc(COC(=O)c3ccccc3NC(=O)c3cccs3)nc2s1
O=C(Nc1c(C(=O)Nc2ccc(F)cc2)oc2ccccc12)c1ccccc1F
Cc1nc2nc(SCC(=O)NCCc3ccccc3)nn2c(C)c1Cc1c(F)cccc1Cl
CCOc1ccccc1C(=O)Nc1ccc2c(c1)N(C)C(=O)c1ccccc1S2
CCCSc1ncc(Cl)c(C(=O)Nc2sc3c(c2C(=O)NCCOC)CCCC3)n1
Cc1c(Cl)cccc1NC(=O)CSc1nc(=O)n(Cc2ccccn2)c2c1CCC2
COc1ccc(N(CC(=O)N2CCN(c3cccc(C)c3C)CC2)S(=O)(=O)c2c(C)noc2C)cc1
COc1ccc2nc(N(Cc3cccnc3)C(=O)c3ccc4c(c3)OCCO4)sc2c1
Cc1ccc(CNS(=O)(=O)c2ccc3c(c2)CCN3S(C)(=O)=O)cc1
O=C(COc1ccccc1Cl)Nc1ccc2oc(-c3ccccc3F)nc2c1

Activity change, negative = inhibition, inactive:
CN(C)Cc1ccc(-c2nc3cccc4c3n2CCNC4=O)cc1 2.56%
CCCN(CCC)S(=O)(=O)c1ccc(C(=O)Nc2sc3c(c2C(=O)OC)CCN(CC)C3)cc1 -6.69%
O=C(Nc1cccc(C(F)(F)F)c1)C1CCCN1S(=O)(=O)c1cccc2nsnc12 (centres undefined) 0.52%
c1ccc(CSc2nc3ncccc3[nH]2)cc1 4.34%
Cc1ccc(CCNC(=O)c2ccc3c(c2)N(Cc2cccc(Cl)c2)C(=O)c2ccccc2S3(=O)=O)cc1 -5.39%
COc1ccc(-n2nc(C)c3c(C(F)(F)F)cc(-c4cccnc4)nc32)cc1 -4.5%
Cc1cn2c(=O)cc(COC(=O)c3cccc(NC(=O)c4ccccc4C)c3)nc2s1 18.9%
COc1ccc(C(=O)COC(=O)C(Cc2c[nH]c3ccccc23)NC(=O)c2ccc(C(C)(C)C)cc2)cc1 (centres undefined) -1.25%
O=C1c2[nH]nc(-c3ccccc3O)c2C(c2cccc(OCc3ccccc3)c2)N1CCO (centres undefined) -4.02%
COc1ccc(CCNC(=O)C(=O)NCC(c2cccs2)S(=O)(=O)c2ccc(C)cc2)cc1 (centres undefined) -8.15%
CCN(CC)C(=O)Cn1c(=O)n(-c2ccc(Cl)cc2)c(=O)c2c3c(sc21)CCC3 1.16%
CCOC(=O)c1c(C)[nH]c(C)c1S(=O)(=O)N1CCN(c2cccc(C(F)(F)F)c2)CC1 -7.76%
Cc1ccc(S(=O)(=O)N2CCC(C(=O)Nc3ccc(C)c(Cl)c3)CC2)cc1 -13.4%
COc1cccc(N2CCN(C(=O)CCS(=O)(=O)c3ccc4c(c3)oc(=O)n4C)CC2)c1 8.42%
COCCCNC(=O)C1CCN(c2nc3ccc(C)cc3[nH]2)CC1 -11.5%
CC1(C)NC(=O)N(c2ccc([N+](=O)[O-])c(C(F)(F)F)c2)C1=O -0.199%
Cc1cc2oc(=O)cc(C)c2c2occ(-c3ccc(Cl)cc3)c12 2.64%
Cc1cccc(N2CCN(C(=O)Cn3ncc4c5ccccc5n(C)c4c3=O)CC2)c1C 6.26%
COc1cc(OC)cc(-c2cc3nc(C)c(CCC(=O)NCc4ccc(Cl)cc4)c(C)n3n2)c1 -1.54%
CCc1ccc(S(=O)(=O)c2cn(Cc3ccccc3)c3cc(F)c(F)cc3c2=O)cc1 5.7%
CCc1ccccc1Nc1nc2ccccc2c2nncn12 2.3%
Cc1ccc2[nH]c3c(=O)n(CC(=O)N4CCCCC4)ncc3c2c1 12.1%
Clc1ccc(C(c2ccccc2)c2c[nH]c3ccccc23)s1 (centres undefined) 6.11%
CCCCNC(=O)CCCn1c(=O)c2ccccc2n(Cc2cccc(Cl)c2)c1=O 6.15%
Cn1c(CN2CCCCC2)nc2cc(NC(=O)c3ccccc3Cl)ccc21 -10.3%
NC(=O)c1nc(Nc2ccccc2)sc1NC(=O)c1ccccc1Br 20.5%
O=C(NC1CCCC1)c1cc(Nc2cccc(C(F)(F)F)c2)nc2ccccc12 -6.4%
CCC(=O)N1CCc2cc(Br)cc(S(=O)(=O)CCC(=O)N3CCN(c4ccccc4F)CC3)c21 7.32%
COc1ccc2nc(NC(=O)c3nc(SC(C)C)ncc3Cl)sc2c1 -14.7%
Cc1cccc(NC(=O)C2CCC(CNS(=O)(=O)c3csc(C(N)=O)c3)CC2)c1C (centres undefined) 9.02%
Cc1ccc(S(=O)(=O)c2nc(S(C)(=O)=O)sc2N(C)Cc2ccccc2)cc1 -4.32%
CC(C)(C)c1ccc(OCC(=O)Nc2ccc(S(=O)(=O)Nc3ncccn3)cc2)cc1 -6.39%
COCCCNC(=O)CSc1nc2c(sc3ccccc32)c(=O)n1CCc1ccccc1 -17%
Cc1nc2c(c(C)c1CCC(=O)NCc1ccccc1)c(=O)n(C)c(=O)n2C 3.95%
O=C(NCCCc1nc2ccccc2n1Cc1c(F)cccc1Cl)C1CCCCC1 5.96%
O=C(COc1ccccc1Cl)Nc1nnc(S(=O)(=O)N2CCCCCC2)s1 -2.6%
CCOC(=O)COc1ccccc1C1C(C(=O)OC)=C(C)NC2=C1C(=O)c1ccccc12 (centres undefined) 3.11%
COc1ccc(NCc2cc3cc4c(cc3n(CC(=O)Nc3cc(C)cc(C)c3)c2=O)OCO4)cc1 -17.6%
N#Cc1c(N)n(-c2cccc(Cl)c2)c2nc3ccccc3nc12 13%
Cc1nn2c(=O)cc(COc3ccc(/C=C(\C#N)C(=O)Nc4ccc(F)cc4)cc3)nc2s1 0.923%
CCOc1ccc(CNc2nc3nc(C)c(Cc4ccccc4)c(=O)n3[nH]2)cc1 -10.5%
CCOc1ccc(-n2c(=O)c3c(C)c(C)sc3n(CC(=O)N(CC)Cc3ccccc3)c2=O)cc1 2.87%
CCC(C)n1ncn(-c2ccc(N3CCN(c4ccc(OC[C@H]5CO[C@](Cn6cncn6)(c6ccc(Cl)cc6Cl)O5)cc4)CC3)cc2)c1=O (some centres undefined) -1.22%
Cc1ccc(Cl)cc1NC(=O)Cc1ccc(-n2c(C)nc3cccnc32)cc1 3.1%
COc1cc(NC(=O)Nc2cccc(-c3noc(C)n3)c2)cc(OC)c1OC -8.24%
Cc1ccc(C)c(C(=O)c2c(N)c(-c3nc(-c4ccc5c(c4)OCO5)cs3)c3ccccn23)c1 4.94%
COc1ccc(N(Cc2cccs2)C(=O)c2ccc(OCC(C)C)cc2)cc1 -1.52%
Cn1c(=O)nc2n(-c3ccc(Cl)c(Cl)c3)c3cc(Cl)ccc3cc-2c1=O -10.1%
C[N+](C)([O-])CCNc1ccc(NCC[N+](C)(C)[O-])c2c1C(=O)c1c(O)ccc(O)c1C2=O -14.7%
Cc1ccc(C)c(NC(=O)CN2C(=O)COc3ccc(Cl)cc32)c1 -0.0812%
CC1=C(C(=O)OCC2CCCCC2)C(c2ccccc2F)CC(=O)N1 (centres undefined) 42.4%
Cc1ccc(C(C)C)c(OCC(=O)N2CCC(c3nc4ccccc4o3)CC2)c1 -5.81%
Cc1ccccc1CNS(=O)(=O)c1csc(C(N)=O)c1 56.6%
COc1ccc(C(=O)N(Cc2ccc(C(C)C)cc2)C2CCS(=O)(=O)C2)cc1 (centres undefined) -1.38%
Cc1c(C2=CCN(S(=O)(=O)c3ccc(CC(C)C)cc3)CC2)c2ccccc2n1CC(=O)N1CCCC1 1.58%
Cc1nn(-c2ccc(N3CCOCC3)nn2)c(C)c1CCC(=O)NCc1ccc(OC(C)C)cc1 9.02%
CCOc1ccc(NS(=O)(=O)c2ccc3[nH]c4c(c3c2)CCCC4)cc1 -2.1%
Cc1nn2c(=O)cc(COC(=O)c3cccc(NC(=O)c4cccs4)c3)nc2s1 -12.4%
Cc1cccc(N(C)S(=O)(=O)c2cc3c(cc2Cl)NC(=O)CO3)c1 22.7%
COc1ccc(-c2cn3nc(N4CCC(C(=O)Nc5cccc(C)c5C)CC4)sc3n2)cc1 4.61%
COCCNC(=O)CCCn1c(=O)c2cc(OC)c(OC)cc2n(CC(=O)Nc2ccc(F)cc2)c1=O -2.27%
